Some of the results follow.

We go through 89 sequences from the supplement of paper PMC11417369.

The subject of this assay is PfAP2-HC AP2 domain (GST-tagged). Kind of assay: gcPBM binding intensity (ln(normalized median fluorescence intensity)); higher = stronger DNA binding. In a few lines: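 GST-fused DNA-binding domains of P. falciparum, expressed in E. coli, were applied at about 25 μg on average for 1 h to an Agilent 4 × 180k array of primer-extended double-stranded 36-bp intergenic genomic probes and negative controls. Binding intensity is the highest Masliner-normalised natural-log median intensity across replicate spots of either probe orientation, measured with Alexa488 anti-GST antibody and a 488 nm scan.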
“TATATTTTTTAAAAAAGTACAAAGTAATTATTGATT [XGTACX_site2420]”: the “gcPBM binding intensity (ln)” value is 9.56.

In the case of “GTAGTACATTCTAGAATACACACCTATATATATATA [CACACA_site522]”, the “gcPBM binding intensity (ln)” value is 9.75. As for “ATTCTAATTTTATGAAACGATTATTTTGAATTCATT [XGTACX_negctrl_site578]”, the “gcPBM binding intensity (ln)” value amounted to 9.6. The same measure for “ATTTTTAATTTTTTCACACATATATTTAAAATAAAA [CACACA_site4799]”: 9.38. As for “ATAAAAAAAAATATATGTACATATATAAATTGATAT [XGTACX_site7409]”, the figure is 9.87. In the case of “CTTTTTTTTTTGTATTGTACTTTATTTTTACATCGT [XGTACX_site2918]”, the “gcPBM binding intensity (ln)” value was 9.74. As for “ATGTGCACATGTAGAAGTACTTTTTCTTAAAATACT [XGTACX_site8341]”, the figure is 10; as for TATGTTTTATATAAGATGCACTTTTGTTATGCTTCA, 9.61; as for “ATTTATGTTATTGTATGTACACAATATAATGTTATT [XGTACX_site5657]”, 9.84. Consider “ATTCTACACGCACATACACACATATAAATATAAATA [CACACA_site7582]”, for which the “gcPBM binding intensity (ln)” value came to 9.94. For the sequence “AAAAAAAAATATATATATATATATATATAATAAAAA [CACACA_negctrl_site639]”, the “gcPBM binding intensity (ln)” value worked out at 9.81.

Consider “AAAAAAAAAAAATGTGCACACGCGTACAGACAAAAA [CACACA_site2005]”, for which the “gcPBM binding intensity (ln)” value was 10.3. “TAAAAAGTACATTATTCATGGCCTATTACATTTTTT [GTGCAC_negctrl_site282]”: the “gcPBM binding intensity (ln)” value was 9.7.

In the case of “ATAATATATATGAAATGTACATAAATTTAATGCGAC [XGTACX_site5394]”, the “gcPBM binding intensity (ln)” value turned out to be 10.2. Take “ACACAAAAATAGTTTTTTATATTGTTAACCTTATAT [XGTACX_negctrl_site123]”: the “gcPBM binding intensity (ln)” value came to 9.71.

Take “ATATTTTACATATTTGCACACATATATTTAAATACA [CACACA_site4628]”: the “gcPBM binding intensity (ln)” value is 10. The same measure for “TAAATACAAGTAAAAAGTACAGAAAAATTATATATA [XGTACX_site1758]”: 9.86; for “TTTATTTTGTTTTCTTGTACATAAATAATTACATAT [XGTACX_site4227]”: 9.86; for “TTTATTTGGACATATACACACTTAAATATGTTTATT [CACACA_site6021]”: 9.74. As for “AAGAGAAATGGGCACACACACACATATTATAGATAT [CACACA_site6828]”, the figure is 10.5. As for “TATAAAAAATTCAATACACACCATATATAAATATAT [CACACA_site6060]”, the figure is 9.92. Take “TATAATAATTCATAATGTACTTTTATCAAAAAAGTA [XGTACX_site6868]”: the “gcPBM binding intensity (ln)” value is 9.39.

With “TGATTCACTATAGTAGTGCATATTATATATATATAT [GTGCAC_site9975]”, the “gcPBM binding intensity (ln)” value came to 9.77. Regarding “CAAATACACGGACACACACACACAAAAAAAAAAAAA [CACACA_site6385]”, the “gcPBM binding intensity (ln)” value turned out to be 11. As for “AAATTATTGTAAAATAGTACAGTGAAACATAAAGTT [XGTACX_site589]”, the figure is 9.82; as for “AATATTTATATTTACACACACATAATACATATATGT [CACACA_site33]”, 10.2; as for “TTTTTATTCAACAAAAATATCAAACATAATTATAAA [CACACA_negctrl_site616]”, 9.33.

Take “ATTTTTATGTCTTTCTATAAATCGAAAATATACATA [CACACA_negctrl_site477]”: the “gcPBM binding intensity (ln)” value was found to be 9.47. For “TTCCTTTAACCCTGCACACATACATACATTTATATG [CACACA_site3953]”, the “gcPBM binding intensity (ln)” value was found to be 10.

As to “ATATACAACTAAAGAACACACATCATTGTTCATTGG [CACACA_site3681]”, the “gcPBM binding intensity (ln)” value amounted to 9.81. As for “AAAAAACGCACTCGTACACACATATTTTCTTTCTAA [CACACA_site3089]”, the figure is 9.77; as for “TTAATTACACAAAAAAGTACTTGATATTGTTTATTA [XGTACX_site3449]”, 9.56; as for “ATATAATCAACTGCAAAGGTTTAAAAGGAAAAAATA [CACACA_negctrl_site989]”, 9.68. As to “AATATTTACCAGAAAATAAAAATATGTATATATATA [CACACA_negctrl_site351]”, the “gcPBM binding intensity (ln)” value was determined as 9.59.

As to “CGATATTCTAAGGATAGTACATAATAAAATAGAGTA [XGTACX_site4224]”, the “gcPBM binding intensity (ln)” value was 9.63. The same measure for “ATTTATATTTTTTAATGTACATTTATATGTATACAA [XGTACX_site4555]”: 9.77; for “TAAAATAGAAATATATGTACATATATATATGTATAT [XGTACX_site4134]”: 9.76; for “ATGTATATATTTACGTGTACATATTCATGTGATATC [XGTACX_site5871]”: 9.75.

As to “TGCTATTTTTTCCTTTTTTTGTATCACAATCATATA [CACACA_negctrl_site1576]”, the “gcPBM binding intensity (ln)” value is 9.74. For “TTATACTTTGGGTGGTGTACTATATTATGCTTATAA [XGTACX_site1106]”, the “gcPBM binding intensity (ln)” value was determined as 10.1. As to “ATTAAACATAAATATGCACACATATACATATATTCA [CACACA_site8850]”, the “gcPBM binding intensity (ln)” value stood at 9.79.

On to “AGTAATAAAAGTAGAAGTACAATACTTCAAAGATAT [XGTACX_site8562]”, for which the “gcPBM binding intensity (ln)” value was 9.89.

Take “GTTCTAAAAGTTAATGCATGTTATAAGTTTCCCTCT [TGCATGCA_site94]”: the “gcPBM binding intensity (ln)” value was 9.57. Turning to “TATTTCAAAATATGGGTGCAGTTCTTCATGATATAT [GTGCAC_site9658]”, the “gcPBM binding intensity (ln)” value was 9.65.

On to “GTATGCATTATATACACACATACATTTATATATTCT [CACACA_site115]”, for which the “gcPBM binding intensity (ln)” value was 10.1. Turning to “ATTATATACATTTTAGTGCATTACATAATAATATAA [GTGCAC_site9836]”, the “gcPBM binding intensity (ln)” value came out at 9.54. As to “ACTATTTAATATAGGGTGCAACTTTTTCAAGTAAAT [GTGCAC_site9853]”, the “gcPBM binding intensity (ln)” value came to 9.58. With “TTTCTTTTTTGATGCGTGCACATTTGTTTATTTTTC [GTGCAC_site9792]”, the “gcPBM binding intensity (ln)” value was found to be 9.89. In the case of “TTTATTTATTAATACACACACACACCCAGACAAAAT [CACACA_site4292]”, the “gcPBM binding intensity (ln)” value came to 11.3.

For the sequence “TATCTTTTTACAATAGTGCATATGTTATCATTAATA [GTGCAC_site9489]”, the “gcPBM binding intensity (ln)” value is 9.65.

Turning to “AGATATATAAATATTACACACTATATATCTATTTAT [CACACA_site6466]”, the “gcPBM binding intensity (ln)” value stood at 9.75. In the case of “ATTTGCCCATTTAATTAACACACAAATGTTTATATT [CACACA_site8145]”, the “gcPBM binding intensity (ln)” value is 9.94. Consider “ACCCCCATATTCTTTTTACACACTTGAATAAAAAAT [CACACA_site8319]”, for which the “gcPBM binding intensity (ln)” value worked out at 9.78. Regarding “ATTTTTCAATTATGTAGTACATTGATATTTTCATTT [XGTACX_site5369]”, the “gcPBM binding intensity (ln)” value was 9.72. On to “ATTCATTTTATTTTTTCACACACACCGATATATATA [CACACA_site9097]”, for which the “gcPBM binding intensity (ln)” value turned out to be 10.2.

On to “TTTTTTTTTTTGTGGTGTACCTTTATTTCCTTTTAG [XGTACX_site6934]”, for which the “gcPBM binding intensity (ln)” value was determined as 9.59. As for “AAAGGGGAAAATATTATACATATAATAAATCCGTAT [XGTACX_negctrl_site355]”, the “gcPBM binding intensity (ln)” value worked out at 9.56. The same measure for “TTTATATTTATATTGGGTACATAAAAAGCTTGAAAT [XGTACX_site8248]”: 9.34. The same measure for “ATTTTTATTCTTATTACACACCTAAATATAAAATAT [CACACA_site2064]”: 9.64; for “TGTGTTCATATATGCACACGCATATATATTATTGTT [CACACA_site3822]”: 10.1; for TGTGTCCATTGAACAGTGCAATAAAAACTTTTACAT: 9.73. As to “ATAAATATGGAGCACACACACATAAACATACATATA [CACACA_site421]”, the “gcPBM binding intensity (ln)” value turned out to be 11.1. In the case of “TTCATTATTATTAACATACACACGTGTTATATACAC [CACACA_site4112]”, the “gcPBM binding intensity (ln)” value is 9.9.

In the case of “TTTTTACTATAATTAAAATTAACAAAAGAAAATGAT [GTGCAC_negctrl_site52]”, the “gcPBM binding intensity (ln)” value worked out at 9.22. In the case of “AAAAAATACAAGAAATGTACTCAAGCATATATTAAT [XGTACX_site3325]”, the “gcPBM binding intensity (ln)” value came out at 9.75.

In the case of “TTCATTTTTTAAGCATCACACACGAAAGAACAAAGT [CACACA_site1122]”, the “gcPBM binding intensity (ln)” value amounted to 9.91. As to “TTTACATCCAAAAACTGTACACTTATTTTATAATTC [XGTACX_site5332]”, the “gcPBM binding intensity (ln)” value was found to be 9.7. As for “ATATATATAATATGTAGTACTTTCCTCTCAAATCAT [XGTACX_site7766]”, the figure is 9.74; as for “ATCAAAAATATAAAAAATATAAACAATTTATTATCA [CACACA_negctrl_site768]”, 9.53; as for “GAATCATATTTAAACACACATACATATATATATATA [CACACA_site3352]”, 9.79. As for “AATAAGTAACAAAATACACACATATATATAATTATA [CACACA_site1837]”, the “gcPBM binding intensity (ln)” value was determined as 10.1. For “TCATAAATTAATAATACATGCATAATATTAAAATGT [TGCATGCA_site5]”, the “gcPBM binding intensity (ln)” value is 9.6.

Consider “AAAAATATATAAGAGAGTACATAAAATAAATTAATT [XGTACX_site1534]”, for which the “gcPBM binding intensity (ln)” value was found to be 9.72. For “TTTAATAATATAATGTGTACTTAAAAATTTATATAT [XGTACX_site5821]”, the “gcPBM binding intensity (ln)” value came out at 9.44. In the case of “TCATTTCAATACACAAGTACGTATATGGTTATATTG [XGTACX_site6021]”, the “gcPBM binding intensity (ln)” value was determined as 9.67. The same measure for “AATATAAAATAATGCACACATAAACAAAAAATCAAA [CACACA_site1371]”: 9.99; for “TCATTTTATTATTCTACACACTTATCTATAATTACA [CACACA_site6168]”: 9.89. As for TTACATGTACAAAAGTTGCACTTCATACACTTTTAT, the figure is 9.81. The same measure for “ATTCTATATATGTGCACACAAAAGATATATATATAT [CACACA_site2124]”: 10; for “CGAAGGTTTGGCCATGCATGTTATAAGAATATATGT [TGCATGCA_site441]”: 9.51. Turning to “AGTATATCAAAATACATACACACATTTGTATATACA [CACACA_site2697]”, the “gcPBM binding intensity (ln)” value is 9.87.

Turning to “TACGTTATGTTGAATAGTACAATTTGGTGAACAGGT [XGTACX_site1729]”, the “gcPBM binding intensity (ln)” value was 9.72. The same measure for “GTCCTCATCCACTATGCACACAAAAAAGAAATACAC [CACACA_site9131]”: 9.87. The same measure for “TTTTTTTTTTTTTTTTGTACACAAATTTATTGTCTA [XGTACX_site2680]”: 9.52; for “TTTCCAAATTGTTGACGGACACTCACGAATAGTTAT [XGTACX_site5720]”: 9.63. The same measure for “CATATGTATATGACTACACACAAGGGTGTACATATA [CACACA_site1164]”: 9.94. Regarding “ACATGAAGATATTTTTGTCCGTACAAATTCATATGA [XGTACX_site1837]”, the “gcPBM binding intensity (ln)” value is 9.51. As for “ATATTTTTTTATAAATGTACAAAAATAATATTGCAT [XGTACX_site7399]”, the figure is 9.48; as for “AAAATAATGTTTATATGTACATATATATATATATAT [XGTACX_site8815]”, 9.92.
